Source: the supplement of paper PMC12297408
Counter-ions that a name gives are not always drawn. About 40 (3%) of roughly 1,300 compounds showed activity. Some of the results follow.

System: Plasmodium falciparum NF54/iGP1_RE9H ulg8 stage V gametocytes
Test: gametocyte viability (luciferase signal relative to DMSO control) (% of DMSO control); higher = less gametocytocidal activity, active = 50 or less
Conditions: exposure time: 72 h
Method in brief: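 Stage V gametocytes of the NF54/iGP1_RE9Hulg8 line (day 12; ~2.5% gametocytemia, 3% hematocrit), in medium containing 0.5% Albumax II, were dispensed into 96-well plates with compounds spotted in nanolitre volumes from 10 mM DMSO stocks, for final concentrations of 10 µM or 1 µM in a single well each. After 72 h at 37 °C, 90 µl from each well was combined with 10 µl D-luciferin (30 mg/ml), and luminescence was measured on an IVIS Lumina II. Viability was expressed against the mean of the DMSO vehicle wells on the same plate.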

| Compound | gametocyte viability (concentration: 1 µM) | gametocyte viability (concentration: 10 µM) |
| --- | --- | --- |
| Cc1cnc(NC(=O)C2=C(O)c3ccccc3S(=O)(=O)N2C)s1 [Meloxicam] | inactive: 81.5 | inactive: 79.9 |
| O=C(O)COC(=O)Cc1ccccc1Nc1c(Cl)cccc1Cl [Aceclofenac] | inactive: 85.9 | inactive: 87.7 |
| Cc1nnc(NS(=O)(=O)c2ccc(N)cc2)s1 [Sulfamethizole] | inactive: 77 | inactive: 84.6 |
| CCN1CCN(c2cc3c(cc2F)c(=O)c(C(=O)O)cn3C2CC2)CC1 [Enrofloxacin] | inactive: 83 | inactive: 84.3 |
| CCN1CCC[C@H]1CNC(=O)c1c(OC)ccc(Br)c1OC [Remoxipride Hydrochloride] | inactive: 90.6 | inactive: 88 |
| CC1CC(OC(=O)C(O)c2ccccc2)CC(C)(C)N1C (stereo not given) [Eucatropine hydrochloride] | inactive: 85.2 | inactive: 90.2 |
| CN(C)CCOc1ccc(/C(=C(/CCCl)c2ccccc2)c2ccccc2)cc1 [Toremifene] | inactive: 84.6 | inactive: 84.4 |
| CCN1CCN(C(=O)N[C@@H](C(=O)N[C@@H]2C(=O)N3C(C(=O)O)=C(CSc4nnnn4C)CS[C@H]23)c2ccc(O)cc2)C(=O)C1=O [Cefoperazone dihydrate] | inactive: 79.3 | inactive: 83.8 |
| C=C1/C(=C\C=C2/CCC[C@]3(C)[C@@H]([C@H](C)/C=C/[C@@H](O)C4CC4)CC[C@@H]23)C[C@@H](O)C[C@@H]1O [Calcipotriene] | inactive: 79.2 | inactive: 64.3 |
| Cc1ccc(Cl)c(Nc2ccccc2C(=O)O)c1Cl [Meclofenamic acid sodium salt monohydrate] | inactive: 84.6 | inactive: 83.3 |
| O=C(NCCO[N+](=O)[O-])c1cccnc1 [Nicorandil] | inactive: 90.5 | inactive: 89.6 |
| COC(=O)Nc1nc2ccc(SC(C)C)cc2[nH]1 [Methiazole] | inactive: 79.3 | inactive: 85.9 |
| CC1=Nc2ccc(Cl)cc2S(=O)(=O)N1 [Diazoxide] | inactive: 86.1 | inactive: 84 |
| Oc1ccc(OCc2ccccc2)cc1 [Monobenzone] | inactive: 95.8 | inactive: 80.5 |
| C[C@H]1C[C@H]2[C@@H]3CCC4=CC(=O)C=C[C@]4(C)[C@@]3(F)[C@@H](O)C[C@]2(C)[C@@]1(O)C(=O)CO [Betamethasone] | inactive: 94.9 | inactive: 82.8 |
| O=C(O)/C=C/c1ccc(Cn2ccnc2)cc1 [Ozagrel hydrochloride] | inactive: 97.5 | inactive: 92.7 |
| CCCc1nc(C)c2c(=O)nc(-c3cc(S(=O)(=O)N4CCN(CC)CC4)ccc3OCC)[nH]n12 [Vardenafil] | inactive: 70.1 | active: 43.9 |
| CCn1nc(C(=O)O)c(=O)c2cc3c(cc21)OCO3 [Cinoxacin] | inactive: 97.4 | inactive: 95.3 |

| Compound | gametocyte viability (concentration: 1 µM) | gametocyte viability (concentration: 10 µM) |
| --- | --- | --- |
| Cc1cc(/C=C/c2ccc3cc(N(C)C)ccc3[n+]2C)c(C)n1-c1ccccc1 [Pyrvinium pamoate] | inactive: 83 | inactive: 57.4 |
| CCCCNc1ccc(C(=O)OCCOCCOCCOCCOCCOCCOCCOCCOCCOC)cc1 [Benzonatate] | inactive: 95.9 | inactive: 96.6 |
| COCCOC(=O)C1=C(C)NC(C)=C(C(=O)OC/C=C/c2ccccc2)C1c1cccc([N+](=O)[O-])c1 (stereo not given) [Cilnidipine] | inactive: 89.1 | inactive: 81 |
| CC[C@H]1OC(=O)[C@H](C)[C@@H](O[C@H]2C[C@@](C)(OC)[C@@H](O)[C@H](C)O2)[C@H](C)[C@@H](O[C@@H]2O[C@H](C)C[C@H](N(C)C)[C@H]2O)[C@](C)(O)C[C@@H](C)[C@@H]2N[C@@H](COCCOC)O[C@H]([C@H]2C)[C@]1(C)O [Dirithromycin] | inactive: 84.4 | inactive: 87 |
| O=C1CC2(CCCC2)CC(=O)N1CCCCN1CCN(c2ncccn2)CC1 [Buspirone hydrochloride] | inactive: 83.9 | inactive: 65.7 |
| C[C@H](O)C(=O)Nc1c(I)c(C(=O)NC(CO)CO)c(I)c(C(=O)NC(CO)CO)c1I [Iopamidol] | inactive: 87.1 | inactive: 87.1 |
| CC(C)CC(=O)N[C@H](C(=O)N[C@H](C(=O)N[C@@H](CC(C)C)[C@@H](O)CC(=O)N[C@@H](C)C(=O)N[C@@H](CC(C)C)[C@@H](O)CC(=O)O)C(C)C)C(C)C [Pepstatin A] | inactive: 81.2 | inactive: 84.5 |
| CC1Cc2ccccc2N1NC(=O)c1ccc(Cl)c(S(N)(=O)=O)c1 (stereo not given) [Indapamide] | inactive: 84.6 | inactive: 87.5 |
| Nc1ccc(S(=O)(=O)Nc2ccnn2-c2ccccc2)cc1 [Sulfaphenazole] | inactive: 86.3 | inactive: 87.1 |
| O=C(NCC(O)CO)c1c(I)c(C(=O)NCC(O)CO)c(I)c(N(CCO)C(=O)CO)c1I (stereo not given) [Ioversol] | inactive: 87.9 | inactive: 56.7 |
| CO/N=C(\C(=O)N[C@@H]1C(=O)N2C(C(=O)O)=C(COC(N)=O)CS[C@H]12)c1ccco1 [Cefuroxime sodium salt] | inactive: 94.7 | inactive: 93.2 |
| Cc1cc(CC(=O)O)n(C)c1C(=O)c1ccc(Cl)cc1 [Zomepirac sodium salt] | inactive: 88.2 | inactive: 91.8 |
| COc1ccc(C2CNC(=O)C2)cc1OC1CCCC1 (stereo not given) [Rolipram] | inactive: 89.7 | inactive: 92 |
| O=C1OCCN1/N=C/c1ccc([N+](=O)[O-])o1 [Furazolidone] | inactive: 86.6 | inactive: 89.3 |
| O=S(=O)(O)c1cc(O)ccc1O [Ethamsylate] | inactive: 93.1 | inactive: 95.7 |
| CCC(=O)O[C@]1(C(=O)CCl)[C@@H](C)C[C@H]2[C@@H]3CCC4=CC(=O)C=C[C@]4(C)[C@@]3(F)[C@@H](O)C[C@@]21C [Clobetasol propionate] | inactive: 95.1 | inactive: 88.8 |
| c1ccc([C@H]2CN3CCSC3=N2)cc1 [Levamisole hydrochloride] | inactive: 84.2 | inactive: 81.4 |
